# Measured values: PubChem BioAssay AID1508624 (National Center for Advancing Translational Sciences (NCATS), 2021)
# Hit rate of the full screen: of about 48,000 compounds, about 120 (0.25%) were called active. Another 4% or so got no clear call; they are omitted. Calls follow the shape of the dose curve; as a rule, active = well fitted activation curve with a large enough effect; inconclusive = small, poorly fitted or top-dose-only effect, or another doubt; inactive = no such curve, though single readings can be large or run the other way. The list shows a part of the results.
# Assay: Primary qHTS for Identification of Small Molecule Activators of Huntingtin-Antisense Promoter Activity; also: nearly all actives have a fitted effect of over 55% in size
# Settings: HEK293 HTT-AS promoter firefly luciferase reporter, 24 h; series mostly up to 57.5 µM; activity change, positive = activation: at the top concentration
# Outline: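 HEK293 Fluc reporter, 2,500 cells/well, 24 h pre-culture; cpds up to 57.5 uM final, 24 h 37 degrees C; Dual-Glo, 10 min RT; normalized vehicle = 0%, zero RLU = -100%.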
row,SMILES,"activity change, positive = activation"
1,COc1ccc(NC(=O)C2CCC(CNS(=O)(=O)c3ccc(Br)s3)CC2)cc1OC (stereo unspecified),inactive: -30.4%
2,CC(NC(=O)CCNS(=O)(=O)c1cccc2nsnc12)c1ccccc1 (stereo unspecified),inactive: -3.07%
3,Cc1ccc2c(=O)cc(CSCC(=O)Nc3nnc(C)s3)[nH]c2c1,inactive: -8.29%
4,COc1ccc(Br)cc1C1Sc2ccccc2NC2=C1C(=O)c1ccccc12 (stereo unspecified),inactive: -21.2%
5,CCOc1cc(-c2nc(-c3ccc(Br)cc3)no2)cc(OCC)c1OCC,inactive: 17%
6,COC(=O)[C@@H]1CC2=CC(=O)CC[C@]2(C)[C@@]23O[C@@H]2C[C@@]2(C)[C@H](CC[C@@]24CCC(=O)O4)[C@@H]13,inactive: -1.48%
7,COc1ccc(-c2cc(C(F)(F)F)n3nc(C(=O)NCC45CC6CC(CC(C6)C4)C5)cc3n2)cc1,inactive: -19.4%
8,O=C(CN1C(=O)COc2ccc(S(=O)(=O)N3CCOCC3)cc21)N1CCN(c2ccccc2)CC1,inactive: -3.04%
9,COCCCNC(=O)c1ccc2c(=O)n(Cc3ccc(OC)cc3)c(=O)[nH]c2c1,inactive: -9.44%
10,CSc1ccc2c(c1)C(N1CCN(C)CC1)Cc1ccccc1S2 (stereo unspecified),inactive: -21.3%
11,Cc1nc(-c2ccc(C)c(S(=O)(=O)N3CCC(C(=O)NCc4ccc(Cl)cc4)CC3)c2)no1,inactive: -20.7%
12,Cc1cccc(CSc2nc3c(c(=O)[nH]2)C(c2cccc(O)c2)CC(=O)N3)c1 (stereo unspecified),inactive: -28.3%
13,Cc1ccc(S(=O)(=O)C(CNC(=O)c2ccccc2F)c2cccs2)cc1 (stereo unspecified),inactive: -10%
14,CCOC(=O)c1c(NC(=O)c2cc(C(C)C)on2)sc(C)c1C,"inactive: 15.7% [at 11.5 µM, percent change from vehicle, -100% = no light]"
15,CC(C)(C)C(=O)Oc1ccc(S(=O)(=O)Nc2ccccc2C(=O)NCC(=O)O)cc1,inactive
16,COc1ccc(C2=C(C)C(=O)N(Cc3ccc(C(=O)NCc4ccc(C)cc4)cc3)S2(=O)=O)cc1,inactive: -4.14%
17,Cc1cccc(CN2CCN(CC(=O)NCc3ccc(Cl)cc3)C2=O)c1,inactive: -17.2%
18,COc1ccc(-n2ncc(C(=O)N3CCc4ccccc4C3)c2C2CCN(C(=O)OC(C)(C)C)CC2)cc1,inactive: 2.53%
19,Cc1cc(C)cc(NS(=O)(=O)c2ccc3c(c2)CCCN3C(=O)C2CCC2)c1,inactive: -16%
20,CC(C(=O)O)c1ccc2c(c1)Cc1cccnc1O2 (stereo unspecified),inactive: -1.39%
21,Cc1oc2ncn(C)c(=O)c2c1C(=O)NCCCN1CCCC(C)C1 (stereo unspecified),inactive: -15.7%
22,C[C@H]1COc2c(C3(N)CC3)c(F)cc3c(=O)c(C(=O)O)cn1c23,inactive: -11.9%
23,O=C(Nc1ccc(Br)cc1F)c1ncoc1-c1ccco1,inactive: 15.7%

row,SMILES,"activity change, positive = activation"
1,CCCN(CCC)CCCNC(=O)c1cn(CC)c2ccc(S(=O)(=O)N3CCc4ccccc4C3)cc2c1=O,inactive: -6.95%
2,COc1cccc(CNCCSc2nnnn2C)c1OCc1ccc(Cl)cc1,inactive: -22.9%
3,CN(C)CCCN1c2ccccc2Sc2ccccc21,inactive: -13.5%
4,CC(C)c1ccc(NC(=O)C2CCCN(S(=O)(=O)c3ccc4[nH]c(=O)ccc4c3)C2)cc1 (stereo unspecified),inactive: -40.1%
5,CCc1ccc(Cn2nnc(C(=O)Nc3ccc(C)cc3)c2N)cc1,inactive: 15.6%
6,CCOC(=O)c1ccc2c(c1)N(CC(=O)Nc1ccc(CC)cc1)C(=O)c1ccccc1S2,inactive: 2.93%
7,COc1cc(NC(=O)Cn2cnc3sc(C)c(S(=O)(=O)N4CCN(C)CC4)c3c2=O)cc(OC)c1OC,inactive: -11%
8,Cc1ccc(Nc2c(-c3ccc(N4CCOCC4)cc3)nc3ncccn23)cc1C,inactive: -24.9%
9,CCOC(=O)c1ccc(NC(=O)CC2C(=O)N(c3ccccc3)C(=O)N2C2CCCCC2)cc1 (stereo unspecified),inactive: -12.8%
10,CCOc1cccc(C(=O)Nc2ccc(NC(=O)c3ccc(Br)cc3)cc2)c1,inactive: -26.7%
11,CCN(c1ccc(C)cc1C)S(=O)(=O)c1nnc(NC(=O)c2ccccc2OC)s1,inactive: -37.8%
12,CCOC(=O)c1oc2ccc(S(=O)(=O)n3nc(-c4cc(OCC)c(OCC)c(OCC)c4)cc3N)cc2c1C,inactive: -16.3%
13,O=C(CSc1oc(-c2ccco2)nc1S(=O)(=O)c1ccccc1)c1ccc(Cl)cc1,inactive: -14.1%
14,Cc1cc(C)c2oc(C(=O)Nc3c(C(=O)Nc4ccccc4)oc4ccccc34)cc(=O)c2c1,inactive: 1.27%
15,Cn1c(SCc2ccc(F)cc2)nc2ccc(C(=O)NCc3ccccc3)cc21,inactive: -49.8%
16,CCCCn1cc(S(=O)(=O)c2ccc(Cl)cc2)c(=O)c2cc(F)c(N3CCCCC3)cc21,inactive: -7.46%
17,Cc1ccc(OCC(=O)Nc2ccc(S(=O)(=O)N(Cc3ccccc3)c3ccccc3)cc2)cc1,inactive: -61.1%
18,COc1ccccc1CNC(=O)c1c(O)nc2cc(C)ccn2c1=O,inactive: -5.04%
19,Cc1nc2ccc(S(=O)(=O)NC(C(=O)NCc3ccc(Cl)cc3)C(C)C)cc2s1 (stereo unspecified),inactive: -11.9%
20,Cc1cccc(C(=O)Nc2ccccc2C(=O)OCc2cc(=O)n3nc(C4CC4)sc3n2)c1,inactive: 8.68%
21,CCOC(=O)c1c(-c2ccc(OC)c(OC)c2)csc1NC(=O)c1ccc(F)cc1,inactive: -2.73%
22,COc1cccc(N2C(=O)CSC23C(=O)N(CC(=O)NCc2ccc(C)cc2)c2ccccc23)c1 (stereo unspecified),inactive: -5.96%
23,CSC1=NC2(CCN(C(=O)NC3CCCCC3)CC2)N=C1c1ccc(C(C)(C)C)cc1,inactive: -12.1%

row,SMILES,"activity change, positive = activation"
1,Cc1cc(C(C)(C)C)c(O)c(C)c1CC1=NCCN1,inactive
2,O=C(C1CCN(c2nc3ccccc3[nH]2)CC1)N1CCN(c2cccc(Cl)c2)CC1,inactive: -20.8%
3,CCc1ccc2occ(CC(=O)Nc3sc4c(c3C(=O)OC)CCC4)c2c1,inactive: -23.3%
4,NC(Cc1ccc(Cl)cc1)C(=O)O (stereo unspecified),"inactive: -3.18% [at 0.74 µM, percent change from vehicle, -100% = no light]"
5,CCOc1ccc(NC(=O)c2c(NC(=O)c3ccccc3Br)sc3c2CCC(C)C3)cc1 (stereo unspecified),inactive: -8.24%
6,CCOc1ccc(NC(=O)CC2C(=O)N(c3ccc(C)cc3)C(=O)N2Cc2ccc(OC)cc2)cc1 (stereo unspecified),inactive: -20.2%
7,CCC(=O)N1CCc2cc(Br)cc(S(=O)(=O)N(CC)Cc3ccccc3)c21,inactive: -7.77%
8,COc1ccc(OC)c(NC(=O)N(C)CCc2c(C)nn(C)c2C)c1,inactive: 8.39%
9,CCc1cccc(C)c1NC(=O)c1cn2c3c(ccc(Cl)c3c1=O)OC(C)C2 (stereo unspecified),inactive: -19.2%
10,Cc1cccc(N2CCN(c3ncnc4onc(C)c34)CC2C)c1 (stereo unspecified),inactive: -93.2%
11,Cc1ccc(-c2nc3ncccc3o2)cc1NC(=O)c1ccc(-c2cccc(Cl)c2C)o1,inactive: -6.18%
12,Cc1nc(-c2cccc(F)c2)sc1CCNC(=O)C(=O)Nc1ccc2c(c1)OCO2,inactive: -10.3%
13,CCCCN(C)S(=O)(=O)c1cc(-c2cc(C)no2)ccc1C,inactive: -30.2%
14,CCOc1ccc(S(=O)(=O)NCC(c2ccc(N(C)C)cc2)N2CCc3ccccc32)cc1 (stereo unspecified),inactive: -15%
15,Cc1cc(-c2nc3ncccc3o2)ccc1NC(=O)c1ccc(Cl)cc1,inactive: 6.55%
16,COC(=O)CSc1ccc2nnc(CCNS(=O)(=O)c3ccccc3)n2n1,inactive: -10.4%
17,CCOC(=O)c1ccc(NC(=O)c2c(NCc3cc(OC)c(OC)cc3OC)sc3c2CCCC3)cc1,inactive: -21.3%
18,CCc1ccc(N2CCn3c2nc2c3c(=O)n(CCCc3ccccc3)c(=O)n2C)cc1,inactive: -10.9%
19,CCCc1cnc2c(c1SCC(=O)Nc1cccc(C)c1C)c(=O)n(C)c(=O)n2C,inactive: -6.85%
20,CCOc1ccc(-c2nonc2NC(=O)COc2ccccc2)cc1,inactive: 2.96%
21,COc1ccc(-n2cc(-c3ccccc3)c3c(NCCc4ccc(OC)c(OC)c4)ncnc32)cc1,inactive: -45.8%
22,CCN1CCN(c2cc3c(cc2F)c(=O)c(S(=O)(=O)c2cc(C)cc(C)c2)cn3CC)CC1,inactive: 4.56%
23,Cn1c(=O)oc2cc(S(=O)(=O)N3CCCC(C(=O)N4CCN(c5cccc(Cl)c5)CC4)C3)ccc21 (stereo unspecified),inactive: -42.5%

row,SMILES,"activity change, positive = activation"
1,O=C(NCCCCc1ccccc1)c1nn(-c2ccccc2)nc1CO,inactive: -28.8%
2,COc1ccc(NC(=O)Cn2nnc(C(=O)Nc3ccc(C)c(F)c3)c2N)cc1Cl,inactive: -15.7%
3,CC1=C(C(=O)OCC2CCCCC2)C(c2cccc(F)c2F)CC(=O)N1 (stereo unspecified),inactive: -19.6%
4,O=C(CC1(O)C(=O)N(Cc2ccccc2)c2ccc(Br)cc21)c1ccccc1 (stereo unspecified),inactive: -29.9%
5,COc1ccc(CNC(=O)CN(c2ccc(OC)cc2)S(=O)(=O)c2c(C)[nH]c(=O)[nH]c2=O)cc1,"inactive: 6.48% [at 11.5 µM, percent change from vehicle, -100% = no light]"
6,NS(=O)(=O)c1cc(C(=O)O)cc(N2CCCC2)c1Oc1ccccc1,inactive: -7.9%
7,Cc1cc(C)cc(OCCn2c(CCNC(=O)C3CCCCC3)nc3ccccc32)c1,inactive: -4.52%
8,O=C(Cc1ccccc1F)N1CCC(c2nc3c(nnn3Cc3cccc(Cl)c3)c(=O)[nH]2)CC1,inactive: -50.9%
9,Cc1ccn2c(Nc3ccccc3C)c(-c3ccccc3)nc2c1,inactive: -14%
10,O=C(Nc1ccc2nc(SCC(=O)N3CCOCC3)sc2c1)c1ccccc1Cl,inactive: -27%
11,Cc1cccc(OCC(=O)Nc2ccccc2OCc2cc(=O)n3cc(C)ccc3n2)c1,inactive: -6.35%
12,Cc1ccc(NCc2cccn2-c2nnc(N3CCC(C(=O)NCc4ccc(F)cc4)CC3)s2)cc1,inactive: -41.8%
13,CCn1ccc2cc(S(=O)(=O)N3CCC(C(=O)NCc4ccc(F)cc4)CC3)ccc21,inactive: -19.4%
14,O=C(Cn1c(=O)n2nc(-c3cccc(F)c3)nc2c2ccccc21)NCc1ccc(Cl)cc1,inactive: 4.34%
15,COc1cccc(NC(=O)Cn2c(=O)n(Cc3ccco3)c(=O)c3cc(OC)c(OC)cc32)c1,inactive: -25.3%
16,COc1ccc(-c2cccc(NS(=O)(=O)c3cc(C)ccc3OC)c2)nn1,inactive: -33.7%
17,CCc1cccc(C)c1NS(=O)(=O)c1ccc(-c2cc(C)no2)s1,inactive: -25%
18,Cc1ccccc1NC(=O)c1c(NC(=O)c2cccs2)sc2c1CCC(C)C2 (stereo unspecified),inactive: -8.97%
19,O=C(Nc1ccc2nn(-c3ccc(Cl)cc3)nc2c1)c1cc2ccccc2o1,inactive: -9.52%
20,COc1ccc(C(=O)NCC(c2ccco2)S(=O)(=O)c2cccs2)cc1 (stereo unspecified),inactive: 15.3%
21,N#Cc1nc(/C=C/c2ccc(F)cc2)oc1NC1CCCCC1,inactive: -4.77%
22,COc1ccc(N(C)C(=O)C2CCN(S(=O)(=O)c3cc(Br)cc4c3N(C(C)=O)CC4)CC2)cc1,inactive: 3.04%
